Laboratory results as given in PubChem BioAssay AID1963576 (National Center for Advancing Translational Sciences (NCATS), 2024).
In all, about 46,000 compounds went through this assay and about 60 (0.1%) were called active. Another 3% or so got no clear call; they are omitted. Calls come from the whole dose curve; as a rule, active = well fitted inhibition curve with a large enough effect; inconclusive = small, poorly fitted or top-dose-only effect; inactive = no such curve, though single readings can be large or run the other way. This is one part of the list.

Assay: Primary qHTS assay for Inhibitors of ovarian cancer metastasis using an organotypic tumor microenvironment (TME) model.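 For Potency: count of GFP cancer cells still attached after washing and fixation.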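 For activity change, negative = inhibition: plate controls were DMSO wells for no effect and tomatine positive control wells for full effect.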 Note: nearly all actives have a fitted effect of over 65% in size.
Details: SKOV3ip1-GFP adhesion/invasion on 3D omental model, fluorescence; series mostly up to 45.8 µM; activity change, negative = inhibition: at the top concentration
Method in brief: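 A 3D layer of primary human omental fibroblasts, mesothelial cells, fibronectin and collagen I, grown 48 hr, received SKOV3ip1-GFP cells in serum-free medium plus compounds at 0.36-46 umol/L. After 2 hr RT and 16 hr 37 C, fixed adherent GFP cells were counted; normalized to DMSO and tomatine.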
Potency is the fitted concentration of half-maximal effect.

SMILES | activity change, negative = inhibition | outcome | Potency
COc1cccc(CNC(=O)C2CCCN(S(=O)(=O)c3ccc4c(ccn4C)c3)C2)c1OC (stereo unspecified) | inactive: -2.33% | – | –
Cc1oc(-c2cccc(Cl)c2)nc1CN1CCC(C(=O)NCc2ccc(F)cc2)CC1 | inactive: 3.75% | – | –
O=C(NCCc1ccccc1)c1c2c(nc3ccccc13)C(=O)N(C1CCCCC1)C2 | inactive: -3.85% | – | –
COc1ccc(NC(=O)CCn2nc(-c3ccc(Cl)cc3)c3ccccc3c2=O)cc1 | inactive: 8.68% | – | –
O=C(Nc1nnc(N2CCCC2)s1)Nc1cc(F)ccc1F | inactive: 10.3% | – | –
CC[C@]12C=CCN3CC[C@@]4(c5cc([C@@]6(C(=O)OC)C[C@H]7C[C@@H](C(C)(F)F)CN(Cc8c6[nH]c6ccccc86)C7)c(OC)cc5N(C)[C@H]4[C@@](O)(C(=O)OC)[C@H]1OC(C)=O)[C@@H]32 | – | inactive | –
Cc1ccc(N2C(=O)CSC23C(=O)Nc2ccccc23)cc1F (stereo unspecified) | – | inactive | –
Cc1cccc(-c2nc3c4ccccc4n(CC(=O)Nc4cc(F)ccc4F)c(=O)n3n2)c1 | inactive: 5.42% | – | –
Cc1cc2c(n1-c1ccc(C(=O)NCc3cccc(Br)c3)cc1)CCC(C)C2 (stereo unspecified) | inactive: -10.5% | – | –
Cc1ccccc1Cn1c(=O)n(CCCCC(=O)NCc2ccc3c(c2)OCO3)c(=O)c2ccccc21 | inactive: 9.23% | – | –
CCOC(=O)c1c(-c2ccccc2)oc2ccc(OCc3ccc(C)cc3)cc12 | – | inactive | –
COc1cccc(NC(=O)Cc2ccc(NC(=O)N3CCCCc4ccccc43)cc2)c1 | – | inactive | –
CCCN1C(=O)c2[nH]nc(-c3ccc(F)cc3)c2C1c1ccc(O)c(OCC)c1 (stereo unspecified) | inactive: -0.983% | – | –
CC(=O)c1cccc(NC(=O)C2CCN(c3nnc(-n4cccc4)s3)CC2)c1 | inactive: -8.12% | – | –
COc1ccc(S(=O)(=O)Nc2c(C)n(C)n(-c3ccccc3)c2=O)cc1Br | inactive: 6.76% | – | –
COc1ccc(COc2cc3oc(=O)c4cc(C(C)O)ccc4c3cc2OC)cc1 (stereo unspecified) | inactive: -9.78% | – | –
COc1ccc(C(=O)Cn2c(=O)n3nc(CCn4nc(C)cc4C)nc3c3cc(OC)c(OC)cc32)cc1 | – | inactive | –
CCOc1ccc(C(=O)Nc2c(C)nc(Nc3ccccc3)nc2Nc2ccccc2)cc1OCC | – | inactive | –
CCOc1ccccc1CNC(=O)C1=C(C)C(=O)OC12CCN(C(C)=O)CC2 | – | inactive | –
CCOC(=O)c1[nH]c(C)c(CCC(=O)Nc2ccc(C)cc2Cl)c1C | inactive: 0.537% | – | –
CCOc1ccc(CNC(=O)C(C)n2ncn3cccc3c2=O)cc1 (stereo unspecified) | inactive: 15.3% | – | –
O=C(c1ccc(Br)cc1)N1CCC(c2nc3ccccc3s2)CC1 | inactive: 4.19% | – | –
COc1ccccc1N1CCN(C(=O)CSc2nc(C)cc(=O)[nH]2)CC1 | – | inactive | –
COc1ccc(CCNc2nc(-c3ccccc3OC)cc(C(F)(F)F)n2)cc1OC | inactive: 19.1% | – | –

SMILES | activity change, negative = inhibition | outcome | Potency
CC(C)Nc1cc(N2CCN(C3CCCCC3)CC2)c2noc3c2c1C(=O)c1ccccc1-3 | inactive: 5.93% | – | –
CCCc1cc(N2CCN(c3ccccc3F)CC2)n2cnnc2n1 | inactive: 15.3% | – | –
CCOC(=O)c1c(C)oc2nc(C)nc(NCCc3ccc(C)cc3)c12 | inactive: 1.78% | – | –
COc1cc(NC(=O)CN2CCCN(Cc3cccc(F)c3)S2(=O)=O)cc(OC)c1 | inactive: -9.34% | – | –
CCCNC(=O)c1cc2n(n1)CCCN(Cc1ccc(C)cc1)C2=O | inactive: 6.66% | – | –
CCOc1ccc(NC(=O)CSc2oc(-c3ccco3)nc2S(=O)(=O)c2ccccc2)cc1 | inactive: -23.5% | – | –
COc1ccc(-c2nc(C)c(CCNC(=O)c3ccc(C(F)(F)F)cc3)s2)cc1OC | – | inactive | –
Cc1ccc(NC(=O)c2oc3ccc(S(=O)(=O)N(C)C4CCCCC4)cc3c2C)c(C)c1 | inactive: 5.35% | – | –
Cc1cccc(C(=O)Nc2ccc(N3CC=C(c4ccccc4C)CC3)c(C(=O)O)c2)c1 | inactive: 1.52% | – | –
Cc1ccc(CN2C(=O)c3ccccc3Sc3ccc(C(=O)N4CCOCC4)cc32)cc1 | inactive: 0.736% | – | –
CC1=C(C(=O)N2CCCCC2)C(c2ccc(Cl)cc2)n2c(nc3ccccc32)N1 (stereo unspecified) | inactive: -1.85% | – | –
CCOC(=O)c1cccc(NC(=O)CSc2ncc3c(n2)-c2ccc(Cl)cc2N(Cc2ccccc2)S3(=O)=O)c1 | inactive: -34.4% | – | –
COc1ccccc1CNC(=O)CCS(=O)(=O)c1ccc2c(c1)oc(=O)n2C | inactive: 4.25% | – | –
Cc1c(-c2nsc(NC(=O)c3cccs3)n2)nnn1-c1ccc(F)cc1 | – | inactive | –
CCOc1ccc(CNC(=O)CSc2c3c(nc4cc(Cl)ccc24)CCCC3)cc1 | inactive: 26.9% | – | –
O=C(NCCc1ccccc1)c1ccc2c(c1)nc1n2CCOC1 | inactive: -4.75% | – | –
Cc1ccc(S(=O)(=O)Nc2cc(Cl)c3oc4c(c3c2)CCCC4)cc1 | – | inactive | –
COc1ccc(CNC(=O)CCCc2nnc3n(C(C)C)c(=O)c4sccc4n23)cc1 | – | inactive | –
O=C(COc1ccccc1F)Nc1ccc2nc(SCC(=O)N3CCOCC3)sc2c1 | inactive: -18.1% | – | –
O=S(=O)(c1ccccc1)c1nc(-c2ccc(F)cc2)oc1NCc1ccccc1 | inactive: -8.87% | – | –
CC(C)Oc1ccc(C(=O)N(Cc2ccc(N(C)C)cc2)Cc2ccco2)cc1 | inactive: -4.85% | – | –
Cc1ccc(OCC(=O)NCC(=O)OCc2cc(=O)n3nc(C(C)C)sc3n2)cc1 | – | inactive | –
COc1ccc(C(=O)NC(c2ccccc2Cl)c2cc(Cl)c3cccnc3c2O)cc1 (stereo unspecified) | inactive: -29% | – | –
Cc1c(C)n(Cc2ccccc2)c2ccc(C(=O)N3CCN(c4ccccc4)CC3)cc12 | inactive: -1.29% | – | –

SMILES | activity change, negative = inhibition | outcome | Potency
CCN(CC)S(=O)(=O)c1ccc2c(c1)N(CC(=O)Nc1c(C)cccc1C)C(=O)C1CCCN21 (stereo unspecified) | inactive: 36.6% | – | –
CCOC(=O)c1oc2c(c1C)-c1nn(Cc3cccc(Cl)c3)cc1CC2 | inactive: -2% | – | –
CCN(C(=O)Cn1c(=O)oc2cc(S(=O)(=O)N3CCCCCC3)ccc21)c1cccc(C)c1 | inactive: 2.68% | – | –
CC(=O)O[C@H]1C[C@@H]2CC[C@H]3[C@H]4C[C@H]([N+]5(C)CCCCC5)[C@@H](OC(C)=O)[C@@]4(C)CC[C@@H]3[C@@]2(C)C[C@H]1[N+]1(C)CCCCC1 | inactive: 14.9% | – | –
Cn1cc(S(=O)(=O)N2CCCCCC2)cc1C(=O)NCc1ccc(F)cc1 | – | inactive | –
O=C(NCc1ccccc1)NC1COc2ccccc2C1 (stereo unspecified) | inactive: 7.51% | – | –
Cc1cccc(OC(=O)c2snnc2C)c1 | inactive: 10.7% | – | –
COc1ccc(NC(=O)c2nc(SCc3ccc(F)cc3)ncc2Cl)cc1 | – | inactive | –
CCOc1ccc(NC(=O)c2sc(-n3nc(C)c(CCC(C)C)c3C)nc2C)cc1 | inactive: -17.1% | – | –
Cc1cccc(NC(=O)C(=O)NCCCN2CCOCC2)c1 | inactive: -4.3% | – | –
COc1ccc(CNCc2ccc(C(=O)O)s2)cc1 | inactive: -1.64% | – | –
CCOc1ccccc1NC(=O)CSc1ncc2c(n1)-c1ccccc1N(CC)S2(=O)=O | inactive: 1.35% | – | –
O=C(NCCc1ccc(Cl)cc1)c1ccc(Nc2nc3ccccc3n3nnnc23)cc1 | inactive: -7.07% | – | –
COC(=O)c1cc2sccc2n1Cc1nc(-c2cccc(Cl)c2)oc1C | inactive: 2.9% | – | –
C=Cc1ccc(Cn2c(C(=O)O)c(CNCCc3ccco3)c3ccc(C)cc32)cc1 | – | inactive | –
CC1=C(c2ccc(C)cc2)S(=O)(=O)NC1=NCc1ccccc1Cl | inactive: -5.2% | – | –
CCCCOC(=O)CSc1ncnc2sc3c(c12)CCC(C)C3 (stereo unspecified) | inactive: -4.18% | – | –
Cc1ccc(-n2ncc3c(NCCc4ccc(S(N)(=O)=O)cc4)ncnc32)cc1 | inactive: 21% | – | –
CCC(C)Nc1nc2c(c(=O)[nH]c(=O)n2C)n1Cc1ccc(F)cc1 (stereo unspecified) | inactive: 0.173% | – | –
Cc1ccccc1Nc1c(-c2ccc(N3CCOCC3)cc2)nc2cccc(C)n12 | inactive: -22.7% | – | –
CCOc1ccccc1CNC(=O)c1ccc2nc(N3CCC(C)CC3)sc2c1 | inactive: 0.162% | – | –
Cc1cccc(NC(=O)c2ccc(CN3CC(=O)N4CCCCC4C3=O)cc2)c1C (stereo unspecified) | inactive: 3.63% | – | –
COCCNC(=O)Cn1nc(-c2ccc(C)cc2)c2ccccc2c1=O | inactive: -9.93% | – | –
CCCCn1c(CCCNC(=O)c2cccc(C)c2)nc2ccccc21 | inactive: 4% | – | –

SMILES | activity change, negative = inhibition | outcome | Potency
Cc1ccc2oc(-c3cccc(NC(=O)c4cccc5c(Cl)cccc45)c3)nc2c1 | inactive: -13% | – | –
COc1cccc(Cn2nnc3c(=O)[nH]c(C4CCCN(C(=O)c5ccccc5Cl)C4)nc32)c1 (stereo unspecified) | inactive: 3.98% | – | –
COc1ccc(CNc2nc(-c3ccc(Cl)cc3)cc(C(F)(F)F)n2)cc1 | inactive: 55.4% | – | –
COc1ccccc1S(=O)(=O)Cc1ccc(C(=O)N2CCN(c3cc(Cl)ccc3C)CC2)o1 | inactive: 0.689% | – | –
CCc1ccccc1NC(=O)COCc1cc(-c2ccco2)on1 | inactive: -3.68% | – | –
Cc1ccc(N2C(=O)[C@@H]3CSC(c4ccc(Cl)cc4)N3C2=O)cc1 (stereo partly specified) | – | inactive | –
Cc1ccc2occ(CC(=O)N(Cc3ccc(Cl)cc3)Cc3ccco3)c2c1 | inactive: -12.7% | – | –
CCOc1ccc(OCC)c(NC(=O)C2CCN(S(=O)(=O)c3ccc4c(c3)CC(C)N4C(C)=O)CC2)c1 (stereo unspecified) | – | inactive | –
Cc1cc(C)c(Cn2c(=O)n(CCC(=O)NCc3ccc4c(c3)OCO4)c(=O)c3ccccc32)c(C)c1 | – | inactive | –
O=C(NCCc1ccccc1)c1ccc2nc(CCc3ccccc3)oc2c1 | inactive: -6.58% | – | –
COc1cc(C2CC(=O)Nc3ccc4ccccc4c32)ccc1OC(=O)C(C)C (stereo unspecified) | – | inactive | –
CCOc1ccc2c(c1)c(=O)c(C(=O)c1ccc(CC)cc1)cn2CC(=O)Nc1cccc(Cl)c1 | – | inactive | –
Cc1ccc(-n2c(CCC(=O)O)ccc2-c2cccs2)cc1Cl | inactive: 7.47% | – | –
O=C(c1ccco1)N(Cc1cccs1)c1ccc(F)cc1 | – | inactive | –
Cc1cc(O)c(C(c2ccccc2)N2CCN(c3ccc(F)cc3)CC2)c(=O)n1Cc1ccco1 (stereo unspecified) | inactive: 17.2% | – | –
O=C(NCC1CCN(Cc2cccc(Cl)c2)CC1)Nc1ccc(F)c(Cl)c1 | – | – | active: 20 µM
CC(C)OCCCN1C(=O)c2[nH]nc(-c3ccccc3O)c2C1c1ccccc1F (stereo unspecified) | – | inactive | –
CCOc1ccccc1N1CC(c2nc3ccccc3n2CCCOc2ccc(OC)cc2)CC1=O (stereo unspecified) | inactive: 6.54% | – | –
COc1ccc(CNC(=O)c2sc3nc[nH]c(=O)c3c2C)cc1 | inactive: 34.3% | – | –
Cc1noc(-c2ccccc2OCC(=O)Nc2ccccc2[N+](=O)[O-])n1 | inactive: -3.23% | – | –
COc1cccc(CNC(=O)c2ccc(-n3c(C)cc4c3CCCC4)cc2)c1 | inactive: -6.47% | – | –
CCc1ccccc1NC(=O)c1cc2nc(-c3ccc(Br)cc3)cc(C(F)(F)F)n2n1 | inactive: 3.18% | – | –
CC(C)c1nc2ccc(C(=O)NCc3ccccc3Br)cc2o1 | – | inactive | –
CCc1ccc(C(=O)CC2(O)C(=O)N(Cc3ccc(C)cc3)c3ccccc32)cc1 (stereo unspecified) | – | inactive | –
